# Source: PubChem BioAssay AID1508623 (National Center for Advancing Translational Sciences (NCATS), 2021)
# About 450 (0.94%) of roughly 48,000 compounds were called active. Another 19% or so got no clear call; they are omitted. Calls follow the shape of the dose curve; as a rule, active = well fitted inhibition curve with a large enough effect; inconclusive = small, poorly fitted or top-dose-only effect; inactive = no such curve, though single readings can be large or run the other way. The list shows a part of the results.
# Assay: Primary qHTS for Identification of Small Molecule Inhibitors of Huntingtin Promoter Activity; also: nearly all actives have a fitted effect of over 50% in size
# Conditions: HEK293 HTT promoter firefly luciferase reporter (activity 0% = vehicle and -100% = no light), 24 h; series mostly up to 57.5 µM; activity change, negative = inhibition: at the top concentration
# Outline: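 HEK293 cells carrying firefly luciferase reporters were seeded at 2,500 per well in Opti-MEM and cultured for 24 h. They were then treated with compounds at up to 57.5 uM final for 24 h at 37 degrees C before Dual-Glo luminescence readout.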
# Potency is read from the fitted curve at half-maximal effect.
SMILES,"activity change, negative = inhibition",Potency
CN(C)c1ccc(CNC(=O)C2CCN(S(=O)(=O)c3ccc4c(ccn4C)c3)CC2)cc1,inactive: -19.2%,–
Cc1n[nH]c(C)c1S(=O)(=O)N1CCCC(C(=O)Nc2ccc(Cl)cc2)C1 (stereo not given),–,active: 28.2 µM
Cc1ccc(C)c(N2CCN(C(=O)Cn3c(-c4cccs4)cc4ccccc43)CC2)c1,inactive: -29.8%,–
CCN(C(=O)Cn1cc(S(=O)(=O)Cc2ccccc2Cl)c2ccccc21)c1ccccc1,inactive: -21.4%,–
CCOC(=O)c1ccc(NC(=O)C(CC)Sc2nc3ncccc3o2)cc1 (stereo not given),inactive: 74.8%,–
C[C@@H](CN(C)C)CN1c2ccccc2Sc2ccccc21,inactive: -14%,–
Cc1ccc(N2CCN(C(=O)c3c4c(nc5ccccc35)C(=O)N(C3CCCCC3)C4)CC2)c(C)c1,inactive: -4.54%,–
COc1ccc(C(=O)Nc2nc3c(s2)CCc2cc(OC)ccc2-3)cc1,inactive: -6.68%,–
COCCCn1c(SCC(=O)NCc2ccccc2)nc2c(sc3ccccc32)c1=O,inactive: -3.5%,–
Cc1ccc(-n2ncc3c(N4CCN(CCO)CC4)ncnc32)cc1Cl,inactive: 21.2%,–
CCCCNc1nc(Oc2ccc(OCC(N)=O)nn2)nc(N2CCOCC2)n1,inactive: -6.44%,–
COc1ccc(C2C(=O)c3ccccc3C2=O)cc1,inactive: 10.5%,–
CC(C)n1c(C=C[C@H](O)C[C@H](O)CC(=O)O)c(-c2ccc(F)cc2)c2ccccc21,inactive: 13.8%,–
CCOc1cc(C2c3c(oc4ccc(F)cc4c3=O)C(=O)N2Cc2ccco2)ccc1O (stereo not given),inactive: -11.4%,–
Cc1ccc(-c2cc(C(=O)NCc3cnn(C)c3)c3cc(Br)ccc3n2)cc1,inactive: 9.81%,–
Cc1ccc(-n2c(SCC(=O)Nc3ccc4c(c3)OCO4)nc3c([nH]c4ccccc43)c2=O)cc1,inactive: -8.14%,–
CCc1ccccc1N(C)C(=O)c1cnc(N2CCOCC2)c2ccccc12,inactive: -5.33%,–
Cc1cc(Br)ccc1NC(=O)c1cn(C2CCCC2)c(=O)c2c1c1ccccc1n2C,inactive: 0.797%,–
Cc1ccc(Cc2nc3ccccc3nc2SCC(=O)NCc2ccc(F)cc2)cc1,inactive: -2.56%,–
CCC(=O)C1=C(c2cccc([N+](=O)[O-])c2)N(C(=O)CC)n2c(nnc2-c2ccccc2)S1,inactive: -9.46%,–

SMILES,"activity change, negative = inhibition",Potency
COc1ccc(CCNC(=O)Cn2c(=O)n(-c3cc(OC)c(OC)c(OC)c3)c(=O)c3ccccc32)cc1OC,inactive: -15.2%,–
COc1cccc(CNc2nc3c(-c4ccccc4)nnn3c3ccccc23)c1,inactive: -11.2%,–
Cc1ccc2oc(=O)c3cnn(CC(=O)N4CCN(c5cc(Cl)ccc5C)CC4)c3c2c1,inactive: 10.4%,–
CN1C(C(=O)Nc2ccccn2)=C(O)c2sccc2S1(=O)=O,inactive,–
CN(Cc1ccccc1)C(=O)CSc1nc2ccsc2c(=O)n1-c1ccc(F)cc1,inactive: -9.39%,–
CCn1cc(C(=O)NCCCN(CC(C)C)CC(C)C)c(=O)c2cc(S(=O)(=O)N(C)C3CCCCC3)ccc21,inactive: -3.71%,–
COc1ccc(NC(=O)CCc2nnc3n(C)c(=O)c4sccc4n23)cc1Cl,inactive: -4.54%,–
COc1cccc(N2C(=O)N(Cc3ccc(C#N)cc3)c3ccccc3S2(=O)=O)c1,inactive: -22.8%,–
CCc1ccccc1NC(=O)Cn1c(=O)n(CC2CCC(C(=O)NCCc3ccccc3)CC2)c(=O)c2ccccc21 (stereo not given),inactive: -7.23%,–
CCC(=O)N1CCc2cc(Br)cc(S(=O)(=O)CCC(=O)Nc3ccc(C)c(C)c3)c21,inactive: -2.84%,–
COc1ccc(-c2noc(-c3ccc(NCc4cccnc4)c([N+](=O)[O-])c3)n2)cc1,inactive: -2.77%,–
COc1ccc(C2=NS(=O)(=O)N(C)C(C(=O)NCc3ccccc3)=C2)cc1OC,inactive: -0.346%,–
CCc1ccc(NC(=O)C(=O)NCC(c2ccc3c(c2)OCO3)N2CCOCC2)cc1 (stereo not given),inactive: -17.1%,–
Cc1ccc(Cl)c(NC(=O)Nc2csc3c2CCCC3)c1,inactive: 14.8%,–
Cc1ncc([N+](=O)[O-])n1CC(O)CCl (stereo not given),inactive: 1.18%,–
CCCC(=O)N(c1ccc2oc(C)c(C(C)=O)c2c1)S(=O)(=O)c1ccc(C)cc1,inactive: -24%,–
CCOC(=O)c1nc(N2CCN(c3ccc(F)cc3)CC2)c2c(C)noc2n1,inactive: -20.1%,–
CCn1c(=O)n(-c2ccc(F)c(Cl)c2)c(=O)c2c3c(sc21)CN(C(C)=O)CC3,inactive: -13.3%,–
COc1cccc(C(=O)Nc2ccc(-c3nc4ccccc4s3)cc2Cl)c1,inactive: -12.3%,–
COc1ccc(NC(=O)CCCc2nnc3n(CCC(C)C)c(=O)c4sccc4n23)c(OC)c1,inactive: -11.4%,–

SMILES,"activity change, negative = inhibition",Potency
COc1ccc(-c2csc3nc(-c4ccc(F)cc4)oc(=O)c23)cc1,inactive: 1.62%,–
COCCNC(=O)c1ccc(-n2c(-c3ccccc3)cc3c2CCCCC3)cc1,inactive: 15.4%,–
CCc1ccccc1NC(=O)Cn1nnc(-c2nc(-c3ccc(C)cc3)no2)c1N,inactive: 5.82%,–
CCOC(=O)c1ccccc1NC(=O)CN1C(=O)CC(c2ccco2)Sc2ccccc21 (stereo not given),inactive: -22.2%,–
Cc1oc(-c2ccc(Cl)cc2)nc1Cn1c(=O)cc(C)c2c(C)nn(-c3cccc(F)c3)c21,inactive: -0.908%,–
Cc1ccc(C(=O)Nc2ccc(C(=O)OCc3cc(=O)n4nc(C5CC5)sc4n3)cc2)cc1,inactive: 0.194%,–
CCn1cc(C(=O)N2CCN(c3ccc(F)cc3)CC2)c(=O)c2cc(S(=O)(=O)N3CCOCC3)ccc21,inactive: -0.27%,–
COc1ccc(NC(=O)C(=O)NCC(c2ccc3c(c2)OCO3)N2CCN(C)CC2)cc1 (stereo not given),inactive: -13%,–
CCOc1cc(CNC(=O)CCCn2c(=O)c3cccn3c3cccnc32)cc(OCC)c1OCC,inactive: -22.8%,–
CC(=O)Nc1cccc(NC(=O)CSc2cn(CC(=O)N(C(C)C)C(C)C)c3ccccc23)c1,inactive: -8.73%,–
COc1ccc(NC(=O)CN2C(=O)COc3ccc(S(=O)(=O)Nc4ccccc4)cc32)cc1OC,inactive: -9.81%,–
CCN(c1cccc(C)c1)S(=O)(=O)c1ccc2c(c1)NC(=O)CCS2,inactive: -14.7%,–
O=C(COCc1cc(-c2cccs2)on1)Nc1cccc(Cl)c1Cl,inactive: -7.38%,–
O=C(NC1CC(=O)N(c2ccccc2)C1)c1ccc(Br)o1 (stereo not given),inactive: -16.3%,–
O=C(NCCCN1CCN(c2cccc(Cl)c2)CC1)Nc1ccccc1C(F)(F)F,inactive: -14.7%,–
CCN(CC)CCOC(=O)C1(c2ccccc2)CCCC1,inactive: 4.62%,–
COc1cccc(CNC(=O)C2CCN(c3nn4c(=O)cc(C)nc4s3)CC2)c1,inactive: -8.01%,–
CCOc1ccc(NC(=O)c2cc3c(n(-c4ccc(OC)cc4)c2=O)CC(C)(C)CC3=O)cc1,inactive: -8.68%,–
COc1ccccc1Cn1c(CNS(=O)(=O)c2ccccc2Cl)nc2cccnc21,inactive: -8.41%,–
CNc1nc(-c2ccc3c(N)n[nH]c3c2)cc(N2C[C@@H](C(=O)NC3CCCCC3)CC[C@@H]2C)n1,inactive: -18.4%,–
